AUC and IC50 data for 68 cell lines are collected here from the supplement of paper PMC4967469.

Usually IC50 stands for the concentration that inhibits the measured activity by half.

IC50 is the fitted dose that halves viability relative to control wells, and lower means more sensitive; fits outside the tested doses are given as limits. For AUC the same curve is integrated over the 256-fold range of doses and scaled to a fraction; it is 1 without any effect and falls as sensitivity rises. Any top dose called inferred was derived from the fitted curves, not read from the paper.

Compound in this experiment: Cc1ccc(-c2c(C(=O)CF)n(CCCO)c3ncnc(N)c23)cc1 [FMK]
Nature of the experiment: Viability of human cancer cell lines after 72 h of drug (GDSC screen). Conditions: top dose inferred. As to the method:
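Human cancer cell lines in 384-well plates, medium with 10% serum, drug for 72 h over a 256-fold dose range (nine 2-fold or five 4-fold steps up to the top dose). Adherent lines were fixed and stained with the nucleic acid dye Syto60, suspension lines read with resazurin; signal relative to control wells, capped at 0 and 100%. One two-parameter sigmoid per drug and line, fitted in a mixed model over all curves with the slope shared within a line.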
“8-MG-BA (glioma, adherent, top dose 20 µM)”: the AUC worked out at 0.973 and the IC50 is greater than 20 µM.

“42-MG-BA (glioma, adherent, top dose 20 µM)”: the AUC worked out at 0.974 and the IC50 is greater than 20 µM.

As to “201T (lung adenocarcinoma, adherent, top dose 20 µM)”, the AUC was determined as 0.958 and the IC50 is greater than 20 µM.

As for “451Lu (melanoma, adherent, top dose 20 µM)”, the AUC came to 0.988 and the half-maximal inhibitory concentration (IC50) is greater than 20 µM.

As to “639-V (bladder, adherent, top dose 20 µM)”, the AUC was found to be 0.991 and the IC50 is greater than 20 µM.

On to “647-V (bladder, adherent, top dose 20 µM)”, for which the AUC stood at 0.986 and the IC50 is greater than 20 µM.

Take “697 (lymphoblastic leukaemia, suspension, top dose 20 µM)”: the AUC amounted to 0.956 and the half-maximal inhibitory concentration (IC50) was greater than 20 µM.

In the case of “769-P (kidney, adherent, top dose 20 µM)”, the AUC turned out to be 0.955 and the IC50 was greater than 20 µM.

Turning to “786-0 (kidney, adherent, top dose 20 µM)”, the AUC was found to be 0.968 and the IC50 was greater than 20 µM.

As for “5637 (bladder, adherent, top dose 20 µM)”, the AUC amounted to 0.989 and the IC50 was greater than 20 µM.

As for “8505C (thyroid, adherent, top dose 20 µM)”, the AUC is 0.978 and the IC50 is greater than 20 µM.

As for “23132-87 (stomach, adherent, top dose 20 µM)”, the AUC stood at 0.986 and the IC50 was greater than 20 µM.

With “A3-KAW (B-cell lymphoma, suspension, top dose 20 µM)”, the AUC is 0.967 and the IC50 was greater than 20 µM.

“A4-Fuk (B-cell lymphoma, suspension, top dose 20 µM)”: the AUC was determined as 0.969 and the half-inhibitory concentration (IC50) is greater than 20 µM.

In the case of “A101D (melanoma, adherent, top dose 20 µM)”, the AUC turned out to be 0.981 and the half-inhibitory concentration (IC50) is greater than 20 µM.

Consider A172 (glioma, adherent, top dose 20 µM), for which the AUC came to 0.979 and the IC50 was greater than 20 µM.

As for “A204 (rhabdomyosarcoma, adherent, top dose 20 µM)”, the AUC was 0.971 and the IC50 is greater than 20 µM.

On to “A253 (head and neck, adherent, top dose 20 µM)”, for which the AUC was determined as 0.982 and the IC50 is greater than 20 µM.

For “A375 (melanoma, adherent, top dose 20 µM)”, the AUC amounted to 0.952 and the IC50 is greater than 20 µM.

As to A388 (skin, adherent, top dose 20 µM), the AUC stood at 0.974 and the IC50 is greater than 20 µM.

Turning to “A427 (non-small cell lung carcinoma, adherent, top dose 20 µM)”, the AUC worked out at 0.983 and the IC50 was greater than 20 µM.

For the cell line A431 (skin, adherent, top dose 20 µM), the AUC amounted to 0.959 and the IC50 was greater than 20 µM.

In the case of “A673 (rhabdomyosarcoma, adherent, top dose 20 µM)”, the AUC stood at 0.99 and the half-inhibitory concentration (IC50) is greater than 20 µM.

On to A704 (kidney, adherent, top dose 20 µM), for which the AUC is 0.989 and the IC50 is greater than 20 µM.

Consider “A2058 (melanoma, adherent, top dose 20 µM)”, for which the AUC came to 0.981 and the IC50 was greater than 20 µM.

As for “A2780 (ovary, semi-adherent, top dose 20 µM)”, the AUC came to 0.95 and the IC50 is greater than 20 µM.

“ABC-1 (lung adenocarcinoma, adherent, top dose 20 µM)”: the AUC was 0.978 and the half-maximal inhibitory concentration (IC50) is greater than 20 µM.

With ACHN (kidney, adherent, top dose 20 µM), the AUC worked out at 0.947 and the IC50 is greater than 20 µM.

Regarding AGS (stomach, adherent, top dose 20 µM), the AUC was 0.989 and the IC50 was greater than 20 µM.

For “ALL-PO (lymphoblastic leukaemia, suspension, top dose 20 µM)”, the AUC was 0.877 and the 50% inhibitory concentration (IC50) was greater than 20 µM.

Turning to “ALL-SIL (T-cell leukaemia, suspension, top dose 20 µM)”, the AUC came out at 0.896 and the IC50 came out at 18.6 µM.

For the cell line “AM-38 (glioma, semi-adherent, top dose 20 µM)”, the AUC is 0.971 and the IC50 is greater than 20 µM.

Consider “AMO-1 (haematopoietic neoplasm, suspension, top dose 20 µM)”, for which the AUC was 0.978 and the IC50 is greater than 20 µM.

As to “ARH-77 (myeloma, suspension, top dose 20 µM)”, the AUC came out at 0.971 and the IC50 is greater than 20 µM.

For “ASH-3 (thyroid, adherent, top dose 10.24 µM)”, the AUC was found to be 0.988 and the IC50 is greater than 10.2 µM.

In the case of “ATN-1 (T-cell lymphoblastic leukaemia, suspension, top dose 20 µM)”, the AUC came out at 0.926 and the IC50 was greater than 20 µM.

As to “AU565 (breast, adherent, top dose 20 µM)”, the AUC turned out to be 0.978 and the concentration for half-maximal inhibition (IC50) was greater than 20 µM.

In the case of “AsPC-1 (pancreas, adherent, top dose 20 µM)”, the AUC is 0.877 and the IC50 was greater than 20 µM.

For the cell line “BB30-HNC (head and neck, adherent, top dose 20 µM)”, the AUC amounted to 0.982 and the half-maximal inhibitory concentration (IC50) was greater than 20 µM.

Consider “BB49-HNC (head and neck, adherent, top dose 20 µM)”, for which the AUC was determined as 0.834 and the IC50 is greater than 20 µM.

As to “BB65-RCC (kidney, adherent, top dose 20 µM)”, the AUC came to 0.983 and the IC50 was greater than 20 µM.

Turning to “BC-1 (B-cell lymphoma, suspension, top dose 20 µM)”, the AUC worked out at 0.988 and the IC50 was greater than 20 µM.

Consider “BC-3 (B-cell lymphoma, suspension, top dose 20 µM)”, for which the AUC was 0.989 and the half-maximal inhibitory concentration (IC50) is greater than 20 µM.

“BE2-M17 (neuroblastoma, adherent, top dose 20 µM)”: the AUC was determined as 0.984 and the IC50 is greater than 20 µM.

On to “BE-13 (lymphoblastic leukaemia, suspension, top dose 20 µM)”, for which the AUC stood at 0.96 and the half-inhibitory concentration (IC50) was greater than 20 µM.

Take “BEN (non-small cell lung carcinoma, adherent, top dose 20 µM)”: the AUC is 0.984 and the IC50 is greater than 20 µM.

Regarding “BFTC-905 (bladder, adherent, top dose 20 µM)”, the AUC came to 0.99 and the IC50 is greater than 20 µM.

“BFTC-909 (kidney, adherent, top dose 20 µM)”: the AUC amounted to 0.988 and the IC50 is greater than 20 µM.

For the cell line “BHY (head and neck, adherent, top dose 20 µM)”, the AUC amounted to 0.964 and the half-maximal inhibitory concentration (IC50) was greater than 20 µM.

In the case of “BICR22 (head and neck, adherent, top dose 20 µM)”, the AUC was 0.98 and the IC50 was greater than 20 µM.

With “BICR78 (head and neck, adherent, top dose 20 µM)”, the AUC amounted to 0.982 and the IC50 is greater than 20 µM.

Take “BL-41 (Burkitt lymphoma, suspension, top dose 20 µM)”: the AUC came out at 0.984 and the IC50 is greater than 20 µM.

With “BT-20 (breast, adherent, top dose 20 µM)”, the AUC was 0.972 and the IC50 was greater than 20 µM.

As to “BT-474 (breast, adherent, top dose 20 µM)”, the AUC is 0.986 and the IC50 was greater than 20 µM.

Regarding “BT-483 (breast, adherent, top dose 20 µM)”, the AUC is 0.977 and the IC50 is greater than 20 µM.

Take “BV-173 (chronic myeloid leukaemia, suspension, top dose 20 µM)”: the AUC was found to be 0.967 and the IC50 is greater than 20 µM.

In the case of “Becker (glioma, adherent, top dose 20 µM)”, the AUC stood at 0.977 and the IC50 is greater than 20 µM.

As for “BxPC-3 (pancreas, adherent, top dose 20 µM)”, the AUC worked out at 0.983 and the IC50 is greater than 20 µM.

For the cell line “C2BBe1 (large intestine, adherent, top dose 20 µM)”, the AUC is 0.981 and the IC50 is greater than 20 µM.

Regarding C3A (liver, adherent, top dose 20 µM), the AUC is 0.988 and the IC50 was greater than 20 µM.

For “C32 (melanoma, adherent, top dose 20 µM)”, the AUC was determined as 0.987 and the IC50 was greater than 20 µM.

On to “C-4-I (cervix, adherent, top dose 20 µM)”, for which the AUC turned out to be 0.986 and the IC50 is greater than 20 µM.

Take “C-33-A (cervix, adherent, top dose 20 µM)”: the AUC stood at 0.977 and the IC50 was greater than 20 µM.

Consider “CA46 (Burkitt lymphoma, suspension, top dose 20 µM)”, for which the AUC came out at 0.953 and the IC50 is greater than 20 µM.

In the case of “CAKI-1 (kidney, adherent, top dose 20 µM)”, the AUC was 0.94 and the IC50 is greater than 20 µM.

For the cell line “CAL-12T (non-small cell lung carcinoma, adherent, top dose 20 µM)”, the AUC came to 0.975 and the IC50 is greater than 20 µM.

With “CAL-27 (head and neck, adherent, top dose 20 µM)”, the AUC is 0.973 and the IC50 is greater than 20 µM.

For the cell line “CAL-33 (head and neck, adherent, top dose 20 µM)”, the AUC stood at 0.973 and the IC50 was greater than 20 µM.
